The structures appear in SMILES notation. Some structures have more than one record in an assay (separate samples or runs), and their calls can disagree.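 Single-dose data. Exposure time 48 hours. Values below 10 considered active.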 Some entries of the source have several records that differ or are many. The other results are left out here. The source may hold further records. This drug was run again and again over the years, at the concentration stated with the values; each value is one run. Marks such as (2×) stand for listed records that agree.

One assay relates to U251 CNS. Kind of assay: NCI-60 one-dose screen, 48 h (100 = growth as untreated, 0 = no growth, -100 = all killed).
For a further assay, the system named is SK-MEL-5 melanoma. Described as above. Conditions: 0.25 µM.

With `COc1cccc2c1C(=O)c1c(O)c3c(c(O)c1C2=O)C[C@@](O)(C(=O)CO)C[C@@H]3OC1CC(N)C(O)C(C)O1` (stereo partly drawn), the growth result in the assay on U251 CNS (0.25 µM, runs of 2016) was “inactive: 12.7 (2×), 14, 12.3 (2×), 12.1 (2×), 11.5 (2×), 21, 13.9 (3×), 11.9, 11.1, 11.6, 12.9, 17.6, 19, 12, 10.8 (2×), 14.3 (2×), 11.2, 12.5 (2×), 12.4, 13.8, 10.6, 16.3 (2×), 14.7, 18.4, 14.2, 16.7 (3×), 20.4 (3×), 15.7, 18.9, 14.1, 13.1 (2×), 18.2, 18.8, 18.7 (2×), 15.6, 24 (2×), 20.2, 24.9, 22.4, 20.9, 22.3, 15.1, 10, 20, 19.3, 16, 21.6, 11.7% and active: 9.83, 6.03, 9.61, 7.67, 7.84, 8.07, -0.855, 9.31%”; in the assay with U251 CNS (0.25 µM, runs of 2017) it was “inactive: 14.5 (2×), 16.3 (2×), 14.2 (3×), 15.1, 11.7 (3×), 13 (3×), 11.5 (2×), 10.8 (2×), 15, 14 (3×), 14.8, 14.7 (2×), 12.7 (2×), 10.5, 12.4 (2×), 13.1 (3×), 18.3 (2×), 15.2 (2×), 11 (2×), 12.5, 15.3, 13.7 (2×), 12.3 (2×), 15.7, 10.4 (2×), 15.5, 14.1, 10.9, 12, 10.6, 11.9 (3×), 11.3, 12.1, 10.1, 10.7, 12.9, 13.5 (3×), 11.4, 13.8, 13.2% and active: 6.78, 8.99, 8.86, 8.87, 9.83, 9.55, 9.41, 9.57%”; in the assay on U251 CNS (0.25 µM, runs of 2018), “inactive: 12.9, 11 (2×), 16 (2×), 11.2 (2×), 14.7, 11.5 (3×), 13.7 (2×), 12.3 (2×), 11.4, 13.9 (2×), 15.7 (2×), 12.8, 18.1, 15.6, 10.9, 13.2, 16.9, 18.8, 15.1, 14.5, 15 (2×), 15.3, 12.4, 12, 11.9, 15.5, 11.8, 16.3, 13.1, 10.6% and active: 8.21, 9.58, 8.29, 9.92, 9.46, 9.53, 5.32, 8.1%”; with U251 CNS (0.25 µM, runs of 2019), “inactive: 16, 10.3, 11.1, 11.7, 14.2, 10.9, 11.6 (3×), 15.1, 12, 15.2, 13.2, 13.6, 10.1, 13 (2×), 12.1, 11.5 (2×), 13.1 (2×), 16.9, 19.2, 20.3, 13.8, 11.9 (2×), 11.3, 11.4, 10.8, 12.8, 11.2, 10.6, 10.7, 12.3 (2×), 16.4, 13.9, 14.3% and active: 8.5, 8.44, 9.67, 8.28, 3.51, 8.46, 8.68, 8.71, 9.84, 9.71, 9.68%”; in the assay with U251 CNS (0.25 µM, runs of 2020), “active: 6.61%, 9.88% and inactive: 11.9, 13.2, 12.9 (2×), 16.4, 14.9, 12.1, 15.5, 13.6 (2×), 10.8, 17.1, 14.3, 16.3, 12, 14.5, 13.7%”; with U251 CNS (0.25 µM, runs of 2021), “inactive: 18.1, 17.6, 17.5, 16.4, 20.4, 17, 15.5, 10.1 (2×), 13.6 (2×), 11.7, 18.7, 13.7 (2×), 12.9, 14, 15.2, 11.3 (3×), 14.2 (2×), 12.3, 15.3, 11.2, 16, 14.8, 13.9 (2×), 13.2, 14.7, 10, 22, 20, 22.1, 10.8, 10.2, 14.1, 12.7, 25.8, 18.9% and active: 7.99, 9.99, 2.59, 7.66, 9.77%”. Further, the growth entry in the assay on U251 CNS (0.25 µM, runs of 2022) is “active: 4.51, 4.62, 9.74, 4.02, 6.26, 6.69, 8.96, 9.28, 8.2, 9.88% and inactive: 11.7, 11.5, 11.1, 14.3, 19.4, 14.8, 19.7, 10.5, 11.8, 32.6, 43.4, 15, 33, 22.9, 43.5, 12, 18.2, 10.7%”; in the assay with U251 CNS (25 µM, runs of 1991), “active: -26.3, -33.5, -14.3, -20.5, -25.9, -22.6, -13.8, -5.22, 3.16, 1.16, -23.9, -10.5, -3.22, 0.485% and inactive: 98.5%”; in the assay on U251 CNS (25 µM, runs of 1992) it was “active: -23.4, -45.2, -32.7, -3.22, 2.06, -33.7, -29.6, -45.4, -34.6 (2×), -4.78, -11.4, -55.1, -40.5 (2×), -18.1, -22 (3×), -9.79, -20.6, -42.1, -23.9, -37.5, 0.512, -15.4, -51.9, -16.5, -36.3, -25.1, -7.22, -28.1, -39.3, -29.5, -19.6 (3×), -32.9, -6.36, -27.6, -40.3, -25.9, -18.9, -8.3, -44.5, -51.5, -38, -29.3, -14.3, -1.56, -13.8, -30.1, -20.3, -23, -26.7, -42.2, -33.5, -27.7, -2.31, -68.8, -35.1, -31.5, -26.9, -21.7, -13.6, -30.4, -35.3, -48, -24.1, -35.7, -35.2 (2×), -43.8, -37, -17.9, -22.4, -20.1, -11.1, -37.6, -31.1, 2.76, -8.05, -51.1, -10.9, -37.7, -38.2, -34, -25.7, -24.8, -25, -54.7, -39.7, -34.9, -42.7 (2×), -66.5, -37.4, -29.7, -22.7, -34.4, 3.61, 3.18, -49.7, -31.7 (2×), -16.9, -51, -55.5, -58.9, -60.9, -1.08, -30.3, -20.8, -47, 3.44, -5.81, -28.8% and inactive: 11.9%, 37.2%”; in the assay on U251 CNS (25 µM, runs of 1993) it was “active: -46.8, -29.3, -18.3, -12.6 (2×), -7.66, -48.6, 0.843, -1.31, -31.3, -40.7, -10.6, 6.42, -0.859, -48.3, -30.4, -15.5, -15.4, -28.3, -22.2, 4.59, -2.64, 1.48, -5.35, -19.4, -46.5, -13.4, -24.7, -40, -18.9, -38.7, -21.3, -14.2, -26.9, -29.9, 2.57, -44.6, -18.7, -20.7, -10.1, -49.7 (2×), -29.8, -26.7, -49.6, -24.3% and inactive: 104%”; in the assay on U251 CNS (25 µM, runs of 1994), “active: -28.5, -16.9, -7.23, -46.2, -24.2, -19.3 (2×), -25.8, -44.9, -71.9, 0.268, -47.3, -30.8, -30, -6.8, -58.7, -34.7, -62, -40.1, -26.7, -59.4, -11.2, -31.9, -24.7, 8.9, -17.7, -33.2, 1.99, -11.6% and inactive: 89.7%”; in the assay on U251 CNS (25 µM, runs of 1995), “active: -10.2, -3.4, -26.9, 9.71, -49.9, -42.4, -9.49, -24.8, -38.3, 0, -20, -3.36, -15.4, -29.7, -28.7, 1.59, -21, -25.7, -17.5, -79.6, -12.5, 3.92, -34, -19.6, -4.69, 1.79, 1.08, -4.87, -10.6, -17.9, 4.56, -32.5, -35.5, -18.1, -59.5, -30.1, -9.64, -32.7, -0.493% and inactive: 13.8%”. Also, the growth entry was “active: -21.2, 0.84, -25, -7.01, -15.1, -2.6, 0.153, -29.7, -34.3, -16.5, -37.6, -36.6, -5.5, -14, -32.6, -52.4, 6.66, -30.1, -21.1, 1.07, -25.1, -21.7, 0.798, -20.9, -14.2, -13.8, -15.4, -19.7 (2×), 4.8, -6.72, -1.05, -4.37, 7.97, -15.5, -7.86, -8.44, -39.3, -37, 2.13, -37.2, -11.9, 2.48, -3.4, -14.9, -12.2, -18.9, 4.52, -28.5, 0.279, -20.2, -41.2, -24.1% and inactive: 99.9%, 11.6%” in the assay on U251 CNS (25 µM, runs of 1996); “active: -49, -18.8, -35.2, -21.6, -24.3, 1.93, 1.56, -3.36, -35, -40.6, 5.89, -38.1, -25.2, -44.4, -20.2, -26.7, -36.2, -14.9, -8.22, -44.9, -24, -39.3, -23, -26.1, -33.9, -7.67, 3.86, 0.57, -34.2, 1.07, -13.4, -13, 4.11, -21.8, -67.9, -15.4, -20.5, -7.92, -7.95, -15.1%” in the assay on U251 CNS (25 µM, runs of 1997); “active: -58.7, -35.4, 0.452, 0, 0.539, 0.957, -49.1, -55.7, -0.595, -39.2, 3.26, -36.2, 3.42, -57.6, -49.8, -37.2, 7.79, -42.4, -41.2, -9.23, 6.54, 3.1, -20.1, -27.4, 3.05% and inactive: 12.3%, 19.8%” with U251 CNS (25 µM, runs of 1998); “active: -66.3, -58.9, -32.7, -100 (2×), -19.1, -63.6, 1.87 (2×), 2.79, -74, -93.8, -14.1, 1.66% and inactive: 12%” in the assay with U251 CNS (25 µM, runs of 1999); “active: -100% (3×), -68.5%” with U251 CNS (25 µM, runs of 2000); “active: 6.31% and inactive: 19.1%” with SK-MEL-5 melanoma (runs of 2006). Also, the growth entry in the assay on SK-MEL-5 melanoma (runs of 2007) was “active: 9.04, 7.52, -12.7, 8.76, -24, 8.73, 2.29% and inactive: 43.4, 29.7, 18.9, 29.8, 10.8, 24.6, 26.5, 32.5, 28.4, 18.4 (2×), 36, 20.1, 30.2, 34 (2×), 33.6, 49.7, 52.3, 39.5, 40.9, 46.7, 43.8, 40.8, 39.9, 40.7, 25.6, 16.6, 12.5, 20, 28.5, 49.6, 33.8%”; in the assay on SK-MEL-5 melanoma (runs of 2008) it was “inactive: 35.1, 33.1, 42.6, 43.6, 37.2, 16.6, 24.9, 40.3, 42.5, 45.1, 39.6, 22.6, 26.1, 33.2, 24.2, 21.1, 44.6, 27.8, 38.5, 101, 23.6 (2×), 11.6, 13.7, 21.5, 20.2, 31, 34, 38.8, 40.5, 36.6, 29.2, 31.7 (2×), 33.4, 38.6, 28.9, 19.7% and active: 5.04, 9.18, 6.26, 0.758, -0.357, 6.01, -23, -36.2, -0.138, -21.7, 6.22, 7.92%”; in the assay with SK-MEL-5 melanoma (runs of 2009) it was “inactive: 34.8 (2×), 27.4, 27.5, 46.5, 14.1 (2×), 11.2, 17.9, 12.5 (2×), 11, 16.5, 17.7, 32.4 (2×), 35.6, 26.2, 40, 32.1 (2×), 29.4, 52.7, 41.4, 29.9, 23.3, 31.8, 35.1, 30.1, 11.1, 22.5, 14.6, 33.6, 25.4, 40.8, 28.4, 25.7 (2×), 23.8, 28.2, 19.6, 44.6, 22.2, 35.7, 37.6, 31.7, 21.5, 21.1, 47, 39.1, 11.9, 18, 26.8, 30.7, 26.3% and active: 5.72, 3.93, -5.98, -6.09, 9.42, 0.151, 5.68, -16.4, -0.282, 6.94, -20, 1.75, -7.47, -6.1, 8.02%”; in the assay with SK-MEL-5 melanoma (runs of 2010), “inactive: 40.6, 36.1, 41.1, 34.8, 27.6, 33.6, 43.3, 33.8, 53.3, 14.4, 11.6, 14.3, 16.7, 26.3, 19.9, 17.5, 22.5, 20.5, 28, 30.5, 18.8, 44.2, 51.8, 32.7, 30.2, 25.9, 37.2, 46.8, 42.1, 16.8, 30.6, 25.1, 17.2, 28.5, 28.8, 29.5, 51.5, 37.7 (2×), 30.7, 41.2, 40.8, 35.4, 50.8, 17, 13.5, 12.3, 18.6, 15.7% and active: -6.79, 9.99, -38.4, 8.39, 1.92%”; with SK-MEL-5 melanoma (runs of 2011) it was “inactive: 39.5 (2×), 35.6, 20.4, 42, 51.1, 43.1, 16.5, 25 (2×), 29.1, 47, 34.6, 14.7, 44.1, 49, 36.4, 28.5, 14.3 (2×), 35.2, 52.1, 50.1, 50.6, 46.3, 22.2, 30.6 (2×), 28.3, 17.5, 22, 29.2, 22.7, 19.8, 11.6, 26.6, 26.3, 25.7, 10.5, 25.8, 19.6, 15.8, 20.1, 21.5, 16.4, 29.9, 20.6, 41.2, 43.9, 36.5, 50, 40.4% and active: -20, -0.575, -5.22, -39.3, 5.09, 0.919, -7.81%”.

(Values after PubChem BioAssay (NCI).)
